Screen size: about 390,000 compounds; about 150 (0.038%) were called active. The shares of active, inactive and inconclusive entries below differ from those in the screen. The call rests on the fitted dose curve; in most records, active means well fitted inhibition curve with a large enough effect; inconclusive means small, poorly fitted or top-dose-only effect; inactive means no such curve, though single readings can be large or run the other way. A potency beside an inconclusive call is a rough fit, not a confirmed value.
biological target: Regulator of G-protein signaling 4 (Homo sapiens) (UniProt P49798); assay: Inhibitors of Regulator of G Protein Signaling (RGS) 4: qHTS; details: Transcreener GDP fluorescence polarization, RGS4-accelerated GTP hydrolysis; series mostly up to 114 µM; activity change, negative = inhibition: at the top concentration; further: nearly all actives have a fitted effect of over 75% in size
UniProt P49798, sequence (P49798 whole entry, looked up): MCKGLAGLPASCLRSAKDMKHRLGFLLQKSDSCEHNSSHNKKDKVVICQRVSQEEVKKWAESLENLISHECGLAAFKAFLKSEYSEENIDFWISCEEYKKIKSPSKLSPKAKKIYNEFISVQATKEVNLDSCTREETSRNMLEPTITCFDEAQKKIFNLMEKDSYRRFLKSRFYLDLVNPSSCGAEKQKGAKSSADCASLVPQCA
In short: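 MLSMR compounds (23 nl, pin-transferred) preincubated 10 min at room temperature with a 500nM (2x) first reagent, then RGS4 at 900nM (2x) plus Transcreener GDP mix added; fluorescence polarization (620/688 nm) read before and after 90 min at 30 °C.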
On the % scale 0 is the no-effect control and ±100 the full control effect; potency means the concentration at half of the fitted maximal effect; tags describe the fitted curve by direction and shape.

Structure (SMILES) | Potency | activity change, negative = inhibition
Cc1cccc(NC(=O)c2cccc(S(=O)(=O)N(C)c3ccccc3)c2)n1 | inconclusive: 44.7 µM [inhibitor, partial curve, poor fit] | –
Oc1ccccc1C1C=C(c2ccc3c(c2)OCO3)NC(c2cccc(F)c2)N1 (stereo not drawn) | – | inactive: -0.697%
CCc1ccc(CCC(=O)Nc2sc3c(c2C#N)CCCC3)o1 | inconclusive: 50.1 µM [inhibitor, partial curve, poor fit] | –
COc1ccc(-n2c(CNC(=O)COc3ccc(Cl)cc3)n[nH]c2=S)cc1 | inconclusive: 79.4 µM [inhibitor, partial curve, poor fit] | –
CC(C)NCCCCOc1cccc(Br)c1 | inconclusive: 50.1 µM [inhibitor, partial curve, poor fit] | –
O=C(CSc1nc2ccccc2[nH]1)NCc1ccco1 | – | inactive: -3.35%
CCCn1c2ccc(C)cc2c2n[nH]c(=S)nc21 | – | inactive: -40.8%
C/C(=N\Nc1ccccc1Cl)c1ccc(-n2ccnc2)cc1 | inconclusive: 39.8 µM [inhibitor, partial curve, poor fit] | –
COc1ccc(-n2c(Cc3cccn3C)nnc2SCC(=O)Nc2ccc(C)cc2C)cc1 | inconclusive: 89.1 µM [inhibitor, single point] | –
O=C(NC1CCCCC1)c1cc(Nc2cccc(C(F)(F)F)c2)nc2ccccc12 | – | inactive: 13.3%
Clc1ccccc1-c1nn2c(-c3ccncc3)nnc2s1 | inconclusive: 50.1 µM [inhibitor, partial curve, poor fit] | –
CC(C)C(=O)N(c1ccc2oc(=O)sc2c1)S(=O)(=O)c1cccs1 | inconclusive: 50.1 µM [inhibitor, partial curve, poor fit] | –
CC(C)Nc1cc(C(F)(F)F)nc(-c2ccccn2)n1 | – | inactive: -18.7%
O=C(CNC(=O)c1ccc(S(=O)(=O)N2CCCC2)cc1)N/N=C/c1c(Cl)cccc1Cl | inconclusive: 89.1 µM [inhibitor, single point] | –
Cc1ccc(C(=O)N2CCN(c3ccc(NC(=O)c4ccc5c(c4)OCCO5)cc3)CC2)cc1 | – | inactive: -7.64%
Cc1ccc(N(CC(O)COCc2ccco2)S(=O)(=O)c2ccc(C)cc2)cc1 (stereo not drawn) | inconclusive: 70.8 µM [inhibitor, partial curve, poor fit] | –
CC(C)Oc1cccc(C(=O)NC(=S)Nc2cccc(C(F)(F)F)c2)c1 | inconclusive: 89.1 µM [inhibitor, partial curve, poor fit] | –
CCCCn1c(N)c(N(CCOC)C(=O)CSc2nc3ccc(C)cc3[nH]2)c(=O)[nH]c1=O | inconclusive: 79.4 µM [inhibitor, single point] | –

From PubChem BioAssay AID504845 (National Center for Advancing Translational Sciences (NCATS), 2011)
